# Experimental data taken from paper PMC4336329 (PLoS ONE, 2015).
# Among all 310,000 compounds or so, about 14,000 (4.5%) showed an effect of 50% or more. The effect is printed as a negative number. The list shows a part of the results.
# Target: human ether-à-go-go-related gene (hERG) potassium channel (human, UniProt Q12809)
# Experiment: primary screen, population patch clamp on CHO cells stably expressing hERG
# 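Also: peak tail current of the secondary pulse compared with the same well before compound.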
# Sequence of human ether-à-go-go-related gene (hERG) potassium channel (Q12809 whole entry, looked up): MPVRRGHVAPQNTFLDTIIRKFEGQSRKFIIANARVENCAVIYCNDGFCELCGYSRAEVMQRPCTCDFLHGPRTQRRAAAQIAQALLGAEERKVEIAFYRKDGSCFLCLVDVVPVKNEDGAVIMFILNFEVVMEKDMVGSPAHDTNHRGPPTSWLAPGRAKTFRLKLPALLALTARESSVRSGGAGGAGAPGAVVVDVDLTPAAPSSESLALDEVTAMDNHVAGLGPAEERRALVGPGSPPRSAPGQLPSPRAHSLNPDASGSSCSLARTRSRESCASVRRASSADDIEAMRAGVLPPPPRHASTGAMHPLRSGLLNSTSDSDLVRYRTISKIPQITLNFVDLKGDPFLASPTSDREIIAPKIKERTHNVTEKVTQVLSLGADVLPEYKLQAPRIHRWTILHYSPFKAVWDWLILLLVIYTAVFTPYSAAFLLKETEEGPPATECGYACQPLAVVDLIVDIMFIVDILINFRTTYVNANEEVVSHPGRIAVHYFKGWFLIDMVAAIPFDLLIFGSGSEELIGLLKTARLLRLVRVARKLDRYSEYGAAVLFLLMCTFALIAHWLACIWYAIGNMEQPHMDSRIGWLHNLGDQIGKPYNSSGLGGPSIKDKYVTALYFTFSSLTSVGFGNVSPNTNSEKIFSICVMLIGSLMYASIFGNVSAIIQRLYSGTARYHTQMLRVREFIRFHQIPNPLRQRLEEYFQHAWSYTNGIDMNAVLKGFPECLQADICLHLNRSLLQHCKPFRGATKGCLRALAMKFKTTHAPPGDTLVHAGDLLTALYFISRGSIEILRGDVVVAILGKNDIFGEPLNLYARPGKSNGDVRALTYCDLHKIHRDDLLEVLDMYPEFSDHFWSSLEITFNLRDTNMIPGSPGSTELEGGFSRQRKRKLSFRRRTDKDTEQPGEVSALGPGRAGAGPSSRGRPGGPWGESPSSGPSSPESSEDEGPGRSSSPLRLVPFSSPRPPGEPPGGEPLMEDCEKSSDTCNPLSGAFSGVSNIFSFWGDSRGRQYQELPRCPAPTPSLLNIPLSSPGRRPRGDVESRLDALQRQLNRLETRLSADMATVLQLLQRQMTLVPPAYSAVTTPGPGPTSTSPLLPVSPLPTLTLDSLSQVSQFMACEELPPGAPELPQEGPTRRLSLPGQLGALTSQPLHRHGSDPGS
row,Compound,"hERG current change (%, negative = inhibition) at 10uM [%]"
1,O=[n+]1cc(-c2ccc(Cl)cc2)n([O-])c2c1CCCCC2,-5.42
2,COc1ccc(C(=O)CSC2=NS(=O)(=O)c3cc(Cl)ccc3N2)cc1,11.5
3,CCN(CC1CCCN(CCc2cccc(OC)c2)C1)C(=O)c1ccc(COC)o1 (centres unmarked),-71
4,COc1cc(OC)c2c(c1)O/C(=C\c1ccccc1)C2=O,5.65
5,CCCCC(=O)Nc1nc2c(OC)ccc(OC)c2s1,7.3
6,CCOc1ccc(NS(=O)(=O)c2ccc(OCC(=O)NCCCOC)cc2)cc1,-12.8
7,CCCOC(=O)c1ccc(Oc2cn[nH]c2-c2ccc(OC)cc2O)cc1,-1.75
8,Cc1csc(=N)n1CC(=O)N1CCc2ccccc21,-8.19
9,CCOC(=O)Cn1nnnc1C(CC)N(Cc1cc2ccc(C)cc2[nH]c1=O)C1CCCC1 (centres unmarked),-12.2
10,O=C(c1c(F)c(F)c(F)c(F)c1F)N(Cc1ccccc1)Cc1ccccc1,-0.767
11,CC1CCc2c(sc3nc(CSc4ncn[nH]4)[nH]c(=O)c23)C1 (centres unmarked),-8.83
12,CC(C)=C(NC(=O)c1ccco1)C(=O)NCCc1nc2ccccc2[nH]1,1.12
13,CC(C)c1cccc(-c2ccc3c(c2)S(=O)(=O)c2cccc(C(=O)O)c2C3=O)c1,-11.7
14,Cc1ccc(N(C)S(=O)(=O)c2cccc(C(=O)NCC(c3cccs3)N3CCOCC3)c2)cc1 (centres unmarked),-36.2
15,Cc1ccc2c(CN(C)Cc3ccccc3)cc(=O)oc2c1C,4.27
16,Cc1ccnc(NC(=O)Nc2ccc(F)cc2)c1,11.2
17,Cc1ccccc1N1CCN(c2ncnc3c2cnn3Cc2ccc(Cl)cc2)CC1,16.9
18,Cn1nc(CC(=O)NCc2ccc(C(F)(F)F)cc2)c2ccccc2c1=O,-17.7
19,O=C(O)CC/C(=N/NC(=O)CNC(=O)C(c1ccccc1)c1ccccc1)c1ccccc1,5.5
20,COc1cccc(CNC(=O)C2CCN(S(=O)(=O)c3ccc(C)cc3)CC2)c1,-50.4
21,O=C(CSc1nc2[nH]ncc2c(=O)[nH]1)Nc1ccccc1,-14.5
22,COc1ccccc1NC(=O)c1c(N=Cc2cccc([N+](=O)[O-])c2)cnn1C,-0.0374

row,Compound,"hERG current change (%, negative = inhibition) at 10uM [%]"
1,C=CCc1cc(/C=C/c2nc(O)c([N+](=O)[O-])c(=O)[nH]2)cc(OC)c1O,26.2
2,N#C/C(=C(/O)COc1ccccc1)c1nc2ccccc2s1,28.8
3,CN(C)C(=O)CSc1nc2ccccc2n1Cc1ccccc1,-11.8
4,Cc1c(NC(=S)NC(=O)c2cccc3ccccc23)cccc1C(=O)O,4.47
5,O=C(COC(=O)c1cc(=O)c2ccccc2o1)NCC1CCCCC1,6.26
6,CCO.N#Cc1c(SC(C(=O)O)c2ccccc2)nc2c(c1-c1cccs1)CCCC2 (centres unmarked),25.2
7,CCCNC(=O)c1ccccc1NC(=O)c1ccccc1N(C)S(C)(=O)=O,1.99
8,Cc1cc(NC(=O)CSc2nc(C3CC3)nc3sc(C)c(C)c23)no1,13.5
9,O=C(CSCc1ccc(Cl)cc1)Nc1ccc(Br)cc1C(=O)O,11
10,CC(C)NC(=O)CN(c1cccc(Br)c1)S(C)(=O)=O,-16.9
11,Cc1ccccc1C(=O)N1CCC(C(=O)NCc2ccc(Cl)cc2)CC1,-6.59
12,COc1ccc(C(C)NC(=O)c2ccoc2C)cc1OC (centres unmarked),6.02
13,Cc1ccc(N(CCC#N)C(=O)COC(=O)c2cc(C)no2)cc1,10.8
14,COCCCNC(=O)Cn1cc2c(n1)CCC(C)C2 (centres unmarked),1.99
15,O=C(O)CCCCCN1C(=O)CSC1=S,3.56
16,CCOC(=O)CSCC(=O)N1CCC(Cc2ccccc2)CC1,3.24
17,CSc1ccccc1NC(=S)NC1CCCC1,9.72
18,N#Cc1c(-c2ccco2)cc(-c2ccccc2)[nH]c1=O,-9.89
19,OCCN1C2CCC1CC(O)(c1ccc(F)cc1)C2 (centres unmarked),4.71
20,OCc1nc2ccccc2n1/N=C/c1cccs1,22.3
21,CC1(C)Cc2c(C#N)c(SCCC#N)nc(N3CCOCC3)c2CO1,11.1
22,O=[N+]([O-])c1cccc(-c2nc(-c3ccccc3)no2)c1,7.53
